Laboratory results as given in PubChem BioAssay AID686978 (National Center for Advancing Translational Sciences (NCATS), 2013).
The campaign covered roughly 420,000 compounds. About 64,000 (15%) were called active. Inconclusive means that the source gave no clear call. Such entries were picked first, then a sample of the others. The call rests on the fitted dose curve; in most records, active means well fitted inhibition curve with a large enough effect; inconclusive means small, poorly fitted or top-dose-only effect; inactive means flat fitted curve, though single readings scatter. Potencies of inconclusive entries are left out as doubtful fits.

assay: qHTS for Inhibitors of human tyrosyl-DNA phosphodiesterase 1 (TDP1): qHTS in cells in absence of CPT; conditions: DT40 Tdp1-/- hTDP1 cells, no CPT, ATP luminescence, 48 h; activity change, negative = growth inhibition: at 46.2 µM (top of the series); further: nearly all actives have a fitted effect of over 55% in size
In short: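 Luminescent ATP content (CellTiter-Glo) served as the growth readout. Knockout chicken DT40 cells expressing human TDP1 were exposed to compounds without camptothecin for a minimum 48 hr at 37 °C.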
On the % scale 0 is the no-effect control and ±100 the full control effect; potency means the concentration at half of the fitted maximal effect; tags describe the fitted curve by direction and shape.

Compound	Potency	activity change, negative = growth inhibition
Cn1c(SCC(=O)N/N=C/c2ccc(O)c(O)c2)nc2ccccc21	active: 18.4 µM	–
CSc1ccc(CN2CCc3c([nH]c4ccccc34)C2)cc1	inconclusive [inhibitor, single point]	–
COc1nc(-c2cnccn2)sc1C	inactive	–
CC(C)(C)OC(=O)N(CCc1ccccc1)Cc1ccccc1OCc1cccc(NC(=O)C2CC2)c1	inconclusive [inhibitor, single point]	–
Cc1ccc(-n2c(=O)c3cccnc3n2CC(=O)NCc2ccc(F)cc2)cc1C	inconclusive [inhibitor, single point]	–
C=CCSc1nnc2c(n1)OC(c1c(C)[nH]n(-c3ccccc3)c1=O)Nc1ccccc1-2 (stereo unspecified)	–	inconclusive: -30.6% [inhibitor]
CCN(Cc1ccc(Cl)s1)C(=O)c1cccc(OCc2c(C)noc2C)c1	inconclusive [inhibitor, single point]	–
Cc1cc(C)c(/C=C/c2onc(C)c2S(=O)(=O)N2CCC(C(=O)Nc3ccc(Cl)c(C(F)(F)F)c3)CC2)c(C)c1	active: 5.8 µM	–
CCn1c(SC)nnc1-c1sc2cc(Cl)ccc2c1Cl	inconclusive [inhibitor, single point]	–
CC[C@H](C)[C@H]1CNC(=S)N1CC1CCN(CCC(C)(C)C)CC1	inactive	–
Cc1ncc(S(=O)(=O)c2ccccc2)c(-c2ccc(Cl)cc2Cl)n1	–	inconclusive: -31.8% [inhibitor]
Cc1cccc(C)c1N1CCN(C(=O)N2CCOCC2)CC1	inconclusive [inhibitor, full curve, poor fit]	–
Cc1ccc(NC(=S)N(N)CCO)cc1	inconclusive [inhibitor, single point]	–
CCOc1ccccc1NC(=O)C(OC(=O)c1ccc(N(C)C)cc1)c1ccccc1 (stereo unspecified)	inconclusive [inhibitor, full curve, poor fit]	–
CCCCn1c(N)c(N(CCC(C)C)C(=O)C2CC(=O)N(c3cccc(SC)c3)C2)c(=O)[nH]c1=O (stereo unspecified)	inactive	–
Cc1ccc(C(=O)N2N=C(c3ccc(NS(C)(=O)=O)cc3)CC2c2cccs2)cc1 (stereo unspecified)	inconclusive [inhibitor, single point]	–
COc1ccc(-n2nc(C(=O)NCC(=O)Nc3cc(OC)c(OC)c(OC)c3)c3ccccc3c2=O)cc1OC	inconclusive [inhibitor, full curve]	–
Cc1cccc(-c2nc(CS(=O)CC(=O)NCCCSC3CCCCC3)c(C)o2)c1 (stereo unspecified)	inconclusive [inhibitor, partial curve]	–
O=C(c1ccc(Cl)c([N+](=O)[O-])c1)N1CCN(Cc2ccc3c(c2)OCO3)CC1	inconclusive [inhibitor, partial curve]	–
CCOCCc1nnc(NC(=O)C(=O)c2cc(C)n(-c3cccc(Cl)c3)c2C)s1	inconclusive [inhibitor, single point]	–
Cc1ccc2nc(NC(=O)CSc3nccn3Cc3ccccc3)sc2c1	inconclusive [inhibitor, single point]	–
COc1ccc(CCNC(=O)CCc2ccc(S(=O)(=O)NC(C)C)cc2)cc1	inactive	–

Compound	Potency	activity change, negative = growth inhibition
Cc1ccccc1NC(=O)CC1SC(=O)N(c2ccccc2)C1=O (stereo unspecified)	active: 4.61 µM	–
Cc1cccc(OCc2nnc(SCC(=O)Nc3cc(C)on3)n2C)c1	inactive	–
COc1ccccc1/C(C)=N/NC(=O)c1nnn(-c2nonc2N)c1C(C)C	inconclusive [inhibitor, single point]	–
Cc1ccc2c(/C=C/c3ccc(N(C)C)cc3)ccnc2c1	inconclusive [inhibitor, single point]	–
CCCCC(=O)Nc1ccccc1C(=O)OCC(=O)c1ccc2c(c1)OCCO2	inconclusive [inhibitor, single point]	–
Cc1ccccc1C(=O)Nc1c(-c2cccs2)c(=O)c2ccccc2n1C	inconclusive [inhibitor, partial curve]	–
CCN(CC)c1ccc(S(=O)(=O)Nc2cc(Cl)ccc2Cl)cc1NC(=S)NC(=O)C1CCCC1	inconclusive [inhibitor, single point]	–
CCS(=O)c1scc(-c2ccc(Cl)cc2)c1C#N (stereo unspecified)	inconclusive [inhibitor, partial curve]	–
COc1ccccc1NC(=O)c1nc(SCc2ccc(F)cc2)ncc1Cl	inactive	–
CC(Oc1ccccc1)c1ccnc2nc(N3CCOCC3)nn12 (stereo unspecified)	–	inconclusive: -31% [inhibitor]
CCOC(=O)c1cnc2ccccc2c1Nc1ccc(N2CCOCC2)cc1	inactive	–
CC(C)NC(=O)c1ccc2c3n(nc2c1)-c1ccc(Cl)cc1CO3	inconclusive [inhibitor, single point]	–
CCCc1cc(C(=O)NC(C)C2CCCO2)cs1 (stereo unspecified)	inactive	–
Cc1cccc(Cn2c(=O)n(-c3ccc(Cl)c(Cl)c3)c(=O)c3c(C)c(C)sc32)c1	inconclusive [inhibitor, partial curve]	–
CC(=O)N1c2c(cc(Br)cc2S(=O)(=O)NCC2COc3ccccc3O2)CC1C (stereo unspecified)	inconclusive [inhibitor, single point]	–
CCN1C(=O)[C@H]2[C@@H](c3ccc(C)cc3)N3C(=O)N(c4cccc(F)c4)C(=O)[C@@]3(Cc3ccc(Cl)cc3)[C@H]2C1=O	inconclusive [inhibitor, single point]	–
Cc1ccc(Cl)cc1NC(=S)N(CCCN1CCOCC1)Cc1ccccn1	inactive	–
Cc1ccc(N(CC(=O)N2CCN(c3cc(Cl)ccc3C)CC2)S(=O)(=O)c2c(C)noc2C)cc1	active: 9.2 µM	–
COc1cc(SC)ccc1C(=O)NC1CCCc2ccccc21 (stereo unspecified)	inconclusive [inhibitor, partial curve]	–
CC(=O)Nc1cccc(/C(C)=N/Nc2nc3ccccc3s2)c1	inconclusive [inhibitor, single point]	–
C[C@H](CO)N1C[C@H](C)[C@H](CN(C)C(=O)Nc2ccc(C(F)(F)F)cc2)Oc2c(NC(=O)c3ccncc3)cccc2C1=O	inconclusive [inhibitor, partial curve]	–
CCOP(=O)(OCC)C(Nc1ccccc1)c1ccccc1C(F)(F)F (stereo unspecified)	inconclusive [inhibitor, single point]	–

Compound	Potency	activity change, negative = growth inhibition
CCOC(=O)N/N=C\C=C\c1ccco1	inconclusive [inhibitor, partial curve]	–
Cn1cnc([N+](=O)[O-])c1S(=O)(=O)Oc1cccc2ccccc12	active: 1.03 µM	–
Cc1ccc2[nH]c(C)c(CCNC(=O)NC3CCCCC3)c2c1	inconclusive [inhibitor, partial curve]	–
COc1ccc(OC)c(NC(=O)c2sc3nc4c(cc3c2N)CCCCCC4)c1	inconclusive [inhibitor, partial curve, poor fit]	–
Cn1c(Cn2c(=O)sc3ccccc32)nnc1SCC(=O)N1CCc2ccccc21	inconclusive [inhibitor, partial curve, poor fit]	–
Cc1sc2c(c1C)C(=O)NC(c1ccccc1F)N2 (stereo unspecified)	inconclusive [inhibitor, partial curve, poor fit]	–
Nc1cc(C(=O)O)c(N)c2c1C(=O)c1ccccc1C2=O	inconclusive [inhibitor, partial curve]	–
COc1ccc(-c2c(-c3ccc4c(c3)OCO4)noc2-c2ccsc2)cn1	active: 14.1 µM	–
CN(C)c1cccc2c(S(=O)(=O)NC(=O)[C@H]3O[C@@H](n4cnc5c(N)ncnc54)[C@H](O)[C@@H]3O)cccc12	inactive	–
c1ccc(OCc2nn3c(-c4n[nH]c5c4CCC5)nnc3s2)cc1	inconclusive [inhibitor, partial curve]	–
Cc1oc(-c2ccccc2F)nc1CN1CCC(C(=O)NC2CCCc3ccccc32)CC1 (stereo unspecified)	inconclusive [inhibitor, single point]	–
CCOC(=O)c1ccccc1NC(=O)c1ccc2nccnc2c1	inconclusive [inhibitor, single point]	–
O=C(c1sc2ccccc2c1Cl)N(Cc1ccco1)C1CCS(=O)(=O)C1 (stereo unspecified)	active: 25.9 µM	–
CCN(c1ccccc1)S(=O)(=O)c1ccc(C(=O)N(C)CCc2ccc(OC)c(OC)c2)cc1	active: 20.6 µM	–
Cc1ccc(NC(=O)CNCC2CCCCC2)cc1S(=O)(=O)N(C)C	inconclusive [inhibitor, partial curve]	–
O=C(Cc1ccc(Br)cc1)NNC(=O)c1cccs1	inactive	–
CCOc1ccc(NC(=O)C(=O)NCCc2csc(-c3ccc(C)cc3)n2)cc1	inactive	–
COc1ccc(C2=NN(CCC(=O)NC3CCCCC3C)C(=O)CC2)cc1 (stereo unspecified)	–	inconclusive: -31.5% [inhibitor]
Cc1noc2ncnc(NCc3ccccc3Cl)c12	inconclusive [inhibitor, partial curve, poor fit]	–
Cc1cc(NC(=O)c2cc3ccccc3o2)cc(C)c1OCC(=O)N1CCOCC1	inconclusive [inhibitor, single point]	–
COc1ccc(NC(=O)CSc2n[nH]c(C(C)C)n2)c([N+](=O)[O-])c1	inconclusive [inhibitor, single point]	–
Cc1ccc(C)c(NC(=O)CN(C)C(=O)c2ccc(COc3ccccc3)cc2)c1	inconclusive [inhibitor, single point]	–
